Experimental data taken from PubChem BioAssay AID1476 (National Center for Advancing Translational Sciences (NCATS), 2009).
Values joined by “and” are separate entries in the source; they are usually repeats but may differ in a detail not shown here. Identical values can stand only once. Screen size: about 200,000 compounds; about 4,500 (2.2%) were called active. Inconclusive results, whose numbers are uncertain, are shown with a selection of clear calls. Calls come from the whole dose curve; as a rule, active = well fitted inhibition curve with a large enough effect; inconclusive = small, poorly fitted or top-dose-only effect, or effect the other way; inactive = flat fitted curve, though single readings scatter. Potencies beside an inconclusive call are fits to weak or partial responses and may not hold up.

biological target: Cruzipain (Trypanosoma cruzi) (UniProt P25779); assay: qHTS Assay for Promiscuous and Specific Inhibitors of Cruzain (without detergent); details: purified cruzain, Z-FR-AMC fluorescence, no detergent; note: nearly all actives have a fitted effect of over 40% in size;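 for max response, negative = inhibition: plate controls were enzyme without inhibitor for no effect and buffer without enzyme for full effect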
Chain of UniProt P25779 (P25779 whole entry, looked up): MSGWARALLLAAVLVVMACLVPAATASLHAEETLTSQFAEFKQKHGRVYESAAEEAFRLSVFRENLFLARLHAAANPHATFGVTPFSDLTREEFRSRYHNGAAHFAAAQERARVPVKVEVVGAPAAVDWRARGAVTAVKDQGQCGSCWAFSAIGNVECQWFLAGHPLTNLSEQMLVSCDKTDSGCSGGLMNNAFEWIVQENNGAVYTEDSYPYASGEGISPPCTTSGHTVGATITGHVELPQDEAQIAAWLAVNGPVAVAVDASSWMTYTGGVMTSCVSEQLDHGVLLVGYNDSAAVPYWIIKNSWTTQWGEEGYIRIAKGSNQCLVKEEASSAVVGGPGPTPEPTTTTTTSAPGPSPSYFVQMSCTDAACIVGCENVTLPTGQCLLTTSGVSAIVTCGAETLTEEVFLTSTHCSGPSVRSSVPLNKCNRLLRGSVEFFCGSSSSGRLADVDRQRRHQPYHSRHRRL
How it was run: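 Detergent-free condition (0.00005% Triton X-100) in acetate buffer pH 5.5 with DTT. 1.5 nM enzyme and compound were pre-mixed 15 min, then 2 uM Z-FR-AMC substrate added; reaction progress from fluorescence change between first and third reads (60 s).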
Potency is the fitted concentration of half-maximal effect; tags give direction and shape of the fitted curve.

Row | SMILES | Potency | max response, negative = inhibition
1 | Cc1ccc(C2CC(c3ccccc3)=NN2C(=O)CSc2nnc(-c3ccc(Cl)cc3)o2)o1 (stereo not drawn) | inconclusive: 39.8 µM [inhibitor, single point] | 
2 | O=C(CSc1nc(N2CCCCC2)nc(N2CCCCC2)n1)Nc1nccs1 | inconclusive: 31.6 µM [inhibitor, single point] | 
3 | COc1cc2c(cc1NC(=O)c1cccc([N+](=O)[O-])c1)oc1ccccc12 | active: 15.8 µM | 
4 | COCCCn1c(=O)/c(=C\c2ccccc2OC(F)F)s/c1=C(/C#N)C(=O)NC(C)C | inconclusive: 25.1 µM [activator, single point] | 
5 | CCOC(=O)c1c(NC(=O)CSc2nnc(-c3cccnc3)o2)sc(C)c1C | inconclusive: 39.8 µM [activator, single point] | 
6 | COC(=O)c1ccccc1N/C=C1\CCc2c(c(C)nn2-c2ccccn2)C1=O | inconclusive: 39.8 µM [activator, single point] | 
7 | CC(C)CCNc1nc(-c2ccco2)c2c(c1C#N)CCCC2 | inconclusive: 20 µM [inhibitor, single point] | 
8 | O=C(CC(=O)NC1CCCCC1)N/N=C/c1ccc(Cl)cc1 | inconclusive: 31.6 µM [inhibitor, single point] | 
9 | CCn1c(CCCOc2ccc(Cl)cc2Cl)nnc1SCC(=O)Nc1cc(F)ccc1C | inconclusive: 25.1 µM [activator, single point] | 
10 | O=C(Nc1ccccc1C(F)(F)F)N1CCN(c2ccc3nnc(-c4ccc(F)cc4)n3n2)CC1 | inconclusive: 31.6 µM [activator, single point] and inconclusive: 25.1 µM [activator, partial curve] | 
11 | CS(=O)(=O)N1CCC2(CCN(c3ccccn3)CC2)CC1 |  | inactive: -3.15%
12 | O=C(CCn1cnc2onc(-c3ccc(F)cc3)c2c1=O)N1CCN(c2cccc(Cl)c2)CC1 |  | inactive: -13.6%
13 | Cc1nc(SCC(=O)c2cc3ccccc3oc2=O)c(C#N)c(C)c1C(=O)Nc1ccccc1 | active: 12.6 µM | 
14 | CCCc1cc(=O)oc2c(CN3CCCC3)c(O)ccc12 | inconclusive: 39.8 µM [inhibitor, single point] | 
15 | CCCCCCc1cc2cc(C(=O)NC)c(=N)oc2cc1O | inconclusive: 39.8 µM [inhibitor, single point] | 
16 | COc1ccc(-c2nn(-c3ccccc3)cc2/C=N/N2C(=O)CSC2=S)cc1 | inconclusive: 10 µM [inhibitor, partial curve] | 
17 | O=C(Nc1cccc(NC(=O)c2ccccc2Cl)c1)c1cccc(Br)c1 | active: 7.94 µM | 
18 | O=C(O)CC(CC(=O)Nc1nncs1)c1ccccc1 (stereo not drawn) |  | inactive: 14.3%
19 | Cc1ccc(NC(=O)CSc2nc(=O)cc(N)n2CCc2ccccc2)cc1 | inconclusive: 31.6 µM [inhibitor, single point] | 
20 | COc1ccc(-c2nc(CN3C(=O)CN=C(c4ccccc4Cl)c4cc(Cl)ccc43)c(C)o2)cc1OC | inconclusive: 39.8 µM [activator, single point] | 
21 | CCc1ccccc1NC(=O)C1CCCN(c2cnccn2)C1 (stereo not drawn) |  | inactive: 7.46%

Row | SMILES | Potency | max response, negative = inhibition
22 | Cc1ccc(/C=N/N2C(=O)c3ccccc3NC2c2ccc(C)cc2)cc1 (stereo not drawn) | inconclusive: 39.8 µM [inhibitor, single point] | 
23 | O=C1NC2(CCCCC2)C(=O)N1Cc1ccc([N+](=O)[O-])cc1 | inconclusive: 31.6 µM [inhibitor, single point] | 
24 | COC(=O)Cn1c(=NC(=O)c2ccc(Cl)s2)sc2cc(C)ccc21 | active: 20 µM | 
25 | OC1CCCN(Cc2c3ccccc3cc3ccccc23)C1 (stereo not drawn) | inconclusive: 39.8 µM [inhibitor, single point] | 
26 | COCCCn1c(=N)c(C(=O)NCC2CCCO2)cc2c(=O)n3ccccc3nc21 (stereo not drawn) | inconclusive: 31.6 µM [inhibitor, single point] | 
27 | O=C1c2ccccc2-c2onc3c(NCCO)cc(NC4CCCCC4)c1c23 | inconclusive: 15.8 µM [inhibitor, partial curve, poor fit] | 
28 | COc1ccc(C(CNC(=O)COc2cc(C)cc(C)c2)N2CCOCC2)cc1 (stereo not drawn) |  | inactive: 0.745%
29 | CC(Sc1oc(-c2cccs2)nc1S(=O)(=O)c1ccccc1)c1ccccc1 (stereo not drawn) |  | inactive: -21%
30 | CCCCCCCCCCCCCCCCCCNC(=O)OCC(COP(=O)([O-])OCC[n+]1ccsc1)OC (stereo not drawn) | inconclusive: 31.6 µM [activator, single point] | 
31 | COc1ccc(-c2cn(/N=C/c3ccc(Cl)cc3Cl)c(N)n2)cc1 | active: 7.94 µM | 
32 | COC(=O)c1c(NC(=O)COC(=O)[C@@H](NS(=O)(=O)c2ccc(C)cc2)C(C)C)sc2c1CCC2 | active: 15.8 µM | 
33 | CNc1ccc2oc(C[C@H]3O[C@]4(CC[C@H]3C)O[C@H]([C@H](C)C(=O)c3ccc[nH]3)[C@H](C)C[C@H]4C)nc2c1C(=O)O | inconclusive: 15.8 µM [activator, partial curve] | 
34 | c1ccc(-c2cn3cccnc3n2)cc1 | inconclusive: 3.98 µM [activator, single point] | 
35 | O=C1CC(SCc2nc3ccccc3[nH]2)C(=O)N1c1cccc(Cl)c1 (stereo not drawn) | active: 15.8 µM | 
36 | Cc1ccc(NCCC(=O)c2ccc(Cl)cc2)cc1C | inconclusive: 39.8 µM [inhibitor, single point] | 
37 | COc1cc(/C=C/c2nc(C#N)c(N3CCC(C)CC3)o2)cc(OC)c1OC | inconclusive: 25.1 µM [activator, partial curve] | 
38 | Cc1cc(=O)c2c(O)cc(O)c(C)c2o1 |  | inactive: -9.23%
39 | O=C(COC(=O)c1cccc(C(=O)OCC(=O)c2ccc(Br)cc2)n1)c1ccc(Br)cc1 | inconclusive: 3.16 µM [inhibitor, full curve, poor fit] | 
40 | COC(=O)[C@@]1(Cc2ccc(F)cc2)[C@@H]2C(=CC(=O)[C@H]2CC(=O)C(=O)N2CCCC2)CN1C(=O)c1ccccc1 | inconclusive: 31.6 µM [activator, partial curve] | 
41 | O=C(c1cccc(C(F)(F)F)c1)N1CCN(c2cc(=O)[nH]nc2-c2ccccc2)CC1 | inconclusive: 39.8 µM [activator, single point] | 
42 | Nc1c(S(N)(=O)=O)cc(S(N)(=O)=O)cc1S(N)(=O)=O |  | inactive: 4.86%

Row | SMILES | Potency | max response, negative = inhibition
43 | Cc1cccc2sc(NC(=O)C3c4ccccc4Oc4ccccc43)nc12 | inconclusive: 39.8 µM [inhibitor, single point] | 
44 | Cc1ccc(NC(=O)CN2C(=O)S/C(=C\c3ccc(-c4cccc(C(=O)O)c4C)o3)C2=O)cc1 | inconclusive: 39.8 µM [activator, single point] | 
45 | c1ccc2sc(N3CCN(Cc4ccc5c(c4)OCO5)CC3)nc2c1 |  | inactive: 2.59%
46 | Clc1ccc(-n2nnnc2SCc2c(-c3ccccc3)nc3sccn23)cc1 | inconclusive: 39.8 µM [inhibitor, single point] | 
47 | COC(=O)c1ccc(C(/C=C/[C@@H](C)C(=O)NCc2ccc(OC)c(O)c2)NC(=O)OCc2ccccc2)cc1 (stereo partly drawn) | inconclusive: 39.8 µM [activator, single point] | 
48 | Cc1ccc(Cl)cc1NC(=O)CN1C(=O)C(C)(C)c2cc(S(=O)(=O)N3CCCCC3)ccc21 | inconclusive: 25.1 µM [activator, single point] | 
49 | CCn1c(CC(=O)Nc2ccc(C)c(Cl)c2)nnc1SCCOc1ccc(OC)cc1 | inconclusive: 25.1 µM [inhibitor, single point] | 
50 | COc1ccc(S(=O)(=O)c2cnc(SCC(=O)Nc3cc(F)ccc3C)[nH]c2=O)cc1Cl |  | inactive: 29.6%
51 | O=S(=O)(c1ccc(OCc2nc3ccccc3s2)c(Cl)c1)N1CCOCC1 | inconclusive: 39.8 µM [activator, single point] | 
52 | Cc1ccc2cc(CN(Cc3ccco3)S(=O)(=O)c3c(C)ccc4nsnc34)c(=O)[nH]c2c1 | inconclusive: 25.1 µM [inhibitor, single point] | 
53 | COC(=O)c1ccc(CSc2nc(N3CCOCC3)c3c(c2C#N)CC(C)(C)OC3)o1 | inconclusive: 31.6 µM [activator, single point] | 
54 | CCN(c1ccc2c(c1)OCO2)S(=O)(=O)c1cc(Br)cc2c1N(C(C)=O)CC2 | inconclusive: 39.8 µM [activator, single point] | 
55 | COC(=O)c1sccc1NC(=O)COc1ccc(Cl)cc1 |  | inactive: -7.31%
56 | COc1ccc(NCc2cc3ccc(OC)cc3n(CC(=O)Nc3cc(Cl)ccc3C)c2=O)cc1 | inconclusive: 31.6 µM [inhibitor, single point] | 
57 | Cc1cc(=O)n(CC(=O)N2CCN(c3ccc(F)cc3)CC2)c2c1c(C)nn2C | inconclusive: 39.8 µM [activator, single point] | 
58 | COC(=O)CN1C(=O)CSc2ccc(S(=O)(=O)Nc3cccc(Cl)c3C)cc21 |  | inactive: -0.0542%
59 | CN(Cc1ccco1)c1ncncc1-c1ccc2c(c1)OCO2 |  | inactive: 2.74%
60 | CCOc1ccc(NS(=O)(=O)c2ccc3[nH]cc(C(=O)NCC4CCCO4)c(=O)c3c2)cc1 (stereo not drawn) | inconclusive: 39.8 µM [activator, single point] | 
61 | CCOc1ccc(N2CC(C(=O)NCc3nnnn3-c3ccc(C)c(C)c3)CC2=O)cc1 (stereo not drawn) | inconclusive: 31.6 µM [activator, single point] | 
62 | COc1cccc(/C=N/NC(N)=S)c1OS(=O)(=O)c1ccccc1 | active: 5.01 µM | 
63 | CC1CCCN(Cc2c(O)ccc3c2O/C(=C\c2ccco2)C3=O)C1 (stereo not drawn) | inconclusive: 15.8 µM [inhibitor, single point] | 
